Experiment [1] deals with HA-TRIM21 (UniProt P19474). The experiment can be described thus: co-IP; HEK293T transfected with HA-TRIM21 and Flag-hRND3, 24 h; IP with anti-HA antibody (1:100); blot with anti-Flag.
Experiment [2] addresses T1, HA-IKKε (IκB kinase epsilon) (UniProt Q14164).
T1 sequence: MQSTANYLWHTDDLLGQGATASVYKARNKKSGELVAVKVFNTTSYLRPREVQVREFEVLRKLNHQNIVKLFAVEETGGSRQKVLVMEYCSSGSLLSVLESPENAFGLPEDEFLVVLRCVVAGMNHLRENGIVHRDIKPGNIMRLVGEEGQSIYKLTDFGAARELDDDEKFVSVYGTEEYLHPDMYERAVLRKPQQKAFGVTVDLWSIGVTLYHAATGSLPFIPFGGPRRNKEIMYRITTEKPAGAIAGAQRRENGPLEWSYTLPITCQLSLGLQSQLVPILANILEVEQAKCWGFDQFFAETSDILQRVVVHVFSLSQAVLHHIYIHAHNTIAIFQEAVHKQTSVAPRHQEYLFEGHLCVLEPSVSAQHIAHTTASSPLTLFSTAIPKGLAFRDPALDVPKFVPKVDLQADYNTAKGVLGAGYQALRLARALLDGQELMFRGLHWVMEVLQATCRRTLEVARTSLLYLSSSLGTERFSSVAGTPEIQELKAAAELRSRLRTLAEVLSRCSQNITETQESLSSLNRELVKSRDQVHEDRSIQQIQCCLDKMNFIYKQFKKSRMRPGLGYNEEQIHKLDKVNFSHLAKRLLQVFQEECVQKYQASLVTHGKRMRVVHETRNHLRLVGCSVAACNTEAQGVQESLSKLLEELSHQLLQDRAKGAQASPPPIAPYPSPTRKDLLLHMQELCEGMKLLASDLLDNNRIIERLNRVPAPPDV
The experiment can be described thus: co-IP; HEK293T co-transfected with Flag-RND3 and HA-IKKε, 24 h; precipitate blotted with anti-Flag (precipitating antibody not stated).

Sequences of proteins named here, by UniProt entry; tags and fusion partners are left off.
UniProt P19474: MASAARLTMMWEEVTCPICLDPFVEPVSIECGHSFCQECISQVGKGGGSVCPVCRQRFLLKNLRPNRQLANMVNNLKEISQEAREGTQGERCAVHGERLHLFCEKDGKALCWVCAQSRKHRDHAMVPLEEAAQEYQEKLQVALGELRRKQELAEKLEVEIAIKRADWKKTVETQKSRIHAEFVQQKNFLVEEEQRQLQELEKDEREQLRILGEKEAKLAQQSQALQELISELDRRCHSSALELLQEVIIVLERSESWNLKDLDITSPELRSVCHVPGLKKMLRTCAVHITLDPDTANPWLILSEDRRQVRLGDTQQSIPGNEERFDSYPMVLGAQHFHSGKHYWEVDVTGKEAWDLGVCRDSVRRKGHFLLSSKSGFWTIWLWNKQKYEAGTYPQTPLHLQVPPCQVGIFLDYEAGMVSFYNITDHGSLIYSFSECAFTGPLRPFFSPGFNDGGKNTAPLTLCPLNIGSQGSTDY

Experiment [3] concerns the target T1, HA-IKKε (IκB kinase epsilon). The experiment can be described thus: co-IP; HEK293T transfected with Myc-hRND3, HA-IKKε and Flag-TRIM21; after 12 h infected with EMCV at MOI 0.01 for 12 h; IP with anti-HA antibody (1:100); blot with anti-Flag.

No constants are given. Whether binding was seen depends on the method and setting. In cells and extracts the contact can be indirect. Some binding calls cover weakened binding; strength is not graded here. Sequences can lack the tags named with a protein.

B1: Flag-tagged full-length human RND3 (pcDNA3.1-Flag-hRND3) (protein, UniProt P61587 1-244)
chain: MKERRASQKLSSKSIMDPNQNVKCKIVVVGDSQCGKTALLHVFAKDCFPENYVPTVFENYTASFEIDTQRIELSLWDTSGSPYYDNVRPLSYPDSDAVLICFDISRPETLDSVLKKWKGEIQEFCPNTKMLLVGCKSDLRTDVSTLVELSNHRQTPVSYDQGANMAKQIGAATYIECSALQSENSVRDIFHVATLACVNKTNKNVKRNKSQRATKRISHMPSRPELSAVATDLRKDKAKSCTVM
With B1, the binding entry in experiment [1] and in experiment [2] was “binds” in each case.

B2: Myc-tagged full-length human RND3 (pcDNA3.1-Myc-hRND3) (protein, UniProt P61587 1-244)
chain: B1 chain
Consider B2, for which the binding result in experiment [3] is recorded as “binds”.
